# This is one part of the list. Shown are side measurements of this screen, not its main read-out; they come without a call. Compounds called inactive in the main read-out are mostly missing here.
# Molecular target: Chromobox protein homolog 7 (Homo sapiens) (UniProt O95931)
# Assay: blockers of CBX7 binding to H3K27me3 peptide – biochemical, AlphaScreen, primary screen (AID 1224903)
# Settings: AlphaScreen His6-CBX7 / biotin-H3K27me3 peptide binding; measured here: z-score of CBX7 signal; stronger effect = lower value
# Chain of UniProt O95931 (O95931 whole entry, looked up): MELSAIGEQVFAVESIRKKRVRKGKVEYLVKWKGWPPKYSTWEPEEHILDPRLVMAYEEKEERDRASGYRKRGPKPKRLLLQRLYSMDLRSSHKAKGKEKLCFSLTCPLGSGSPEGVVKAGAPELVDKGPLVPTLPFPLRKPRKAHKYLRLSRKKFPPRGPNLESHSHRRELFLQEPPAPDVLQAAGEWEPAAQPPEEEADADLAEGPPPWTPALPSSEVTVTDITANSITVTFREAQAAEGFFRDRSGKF
row,SMILES,z-score
1,O=C(CC(Sc1cccc2cccnc12)c1ccc(F)cc1)c1cccs1 (stereo not drawn),-3.92
2,Cc1cccc(NC(=O)CSc2nccn2-c2ccc(Cl)cc2)c1C,-1.97
3,CCN1CCCc2cc(CN(C(=O)Nc3ccc(C)c(C)c3)C3CCCC3)ccc21,-8.78
4,Cc1cccc(-n2c(-c3ccccc3F)nc3c(cnn3-c3ccccc3)c2=O)c1,-20.4
5,O=C(Nc1ccc2oc(-c3ccccc3Cl)nc2c1)c1ncn[nH]1,-27.2
6,Cc1cccc2nc(-c3ccccn3)c(Nc3ccc(F)cc3)n12,-25.1
7,CCc1ccc(NC(=O)N(Cc2ccc3c(c2)CCCN3CC)C2CCCC2)cc1,-10.3
8,CCc1nnc(NC(=O)c2ccc(S(=O)(=O)N3CCCCCC3)cc2)o1,-10.6
9,O=C(Nc1ncn[nH]1)c1ccccc1O,-37.5
10,CN(c1ccccc1)S(=O)(=O)c1ccc(C(=O)Nc2nnc(-c3ccc(Cl)s3)o2)cc1,-6.88
11,CCOC(=O)c1cnc2ccc(OCC)cc2c1N1CCN(c2ccccc2OC)CC1,-0.605
12,COc1cc(Nc2nc(-c3ccc(C4CCCCC4)cc3)cs2)c(OC)cc1Cl,-5.97
13,COc1ccccc1CNc1nc(-c2ccccc2F)nc2ccccc12,-0.894
14,CCc1ccc2oc(-c3cccc(NC(=O)c4ncn[nH]4)c3)nc2c1,-16.9
15,CCOC(=O)c1cnc2c(C(F)(F)F)cccc2c1Nc1ccc(N(C)C)cc1,-38.1
16,Cc1ccc(Nc2nc(-c3sc(N)nc3C)cs2)cc1,-12.2
17,CCc1nnc(NC(=O)c2ccc(S(=O)(=O)N(CC)c3ccccc3)cc2)o1,-1.61
18,COc1cccc(-c2nc(-c3ccccc3)c(-c3cccs3)[nH]2)c1OC,-0.569
19,CCOC(=O)c1ccc(Nc2nnc(C(C)(C)C)c(=O)[nH]2)cc1,-8.71
20,CCCCN(CCCC)S(=O)(=O)c1ccc(C(=O)Nc2nnc(CC)o2)cc1,-10.5
21,CCc1nc(C)ccc1OCC(=O)NCCCN(C)C,-11.2
22,CCN(CCCNC(=O)CCc1nc(-c2ccc(OC)cc2)no1)c1cccc(C)c1,-12.5

row,SMILES,z-score
1,Cc1nc(C)c(-c2csc(Nc3ccc(N(C)C)cc3)n2)s1,-18.8
2,COc1ccccc1Nc1nc(-c2ccncc2)nc2ccccc12,-0.668
3,CCOc1ccccc1NC(=O)CSc1nccn1-c1cccc(OC)c1,-0.688
4,O=C1CC(NCCc2ccccn2)C(=O)N1c1ccc(Cl)cc1 (stereo not drawn),-12.8
5,COc1ccc(Br)cc1CNC(=O)CCCc1cn(C)c2ccccc12,-10.1
6,O=c1c(-c2cc(Br)ccc2NCc2ccccc2)nc2ccccc2n1Cc1ccccc1,-9.12
7,COc1ccc(Nc2ncc(C(=O)Nc3cccc(Cl)c3)c3ccccc23)cc1,-13.5
8,COc1ccc(-c2nc(-c3ccccc3F)[nH]c2-c2ccc(OC)cc2)cc1,-0.531
9,COc1ccc(NC(=O)[C@H](Cc2ccccc2)N2Cc3ccccc3C2=O)cc1OC,-1.63
10,O=C(c1ccc2nc(-c3ccco3)c(-c3ccco3)nc2c1)N1CCc2ccccc2C1,-2.76
11,Cc1cccc2nc(-c3ccccn3)c(Nc3ccccc3)n12,-21.5
12,Oc1ccc(-c2nc(-c3ccccc3)c(-c3ccccc3)[nH]2)cc1,-0.573
13,NC(=O)c1ccc(-c2ncc(-c3ccccc3)o2)cc1,-0.647
14,COC(=O)c1c[nH]n2c(NC3CCC(C)CC3)c(-c3ccc(F)cc3)nc12 (stereo not drawn),-0.842
15,Cc1ccc(C)c(-c2csc(Nc3ccc(C)c(Cl)c3)n2)c1,-10.8
16,N#Cc1nc(COc2ccccc2)oc1N1CCCCCC1,-3.4
17,CCc1nnc(NC(=O)c2ccc(S(=O)(=O)N3CCCCC3)cc2)o1,-9.94
18,COc1ccc(-c2nc(-c3cccs3)c(-c3cccs3)[nH]2)cc1OC,-0.551
19,Cc1ccc2[nH]c3c(c2c1)CCCC3NCc1ccc(F)cc1 (stereo not drawn),-3.59
20,CN(C)c1ccc(C2NC(C(=O)O)Cc3c2[nH]c2ccccc32)cc1 (stereo not drawn),-8.2
21,Cc1nc(N)sc1-c1csc(Nc2ccc(Cl)cc2)n1,-12.2
22,COc1ccc(OC)c(NC2c3ccccc3C(=O)N2c2ccc(Cl)cn2)c1 (stereo not drawn),-17.7

row,SMILES,z-score
1,OC1CCCc2c1[nH]c1ccc(OCc3ccccc3)cc21 (stereo not drawn),-1.61
2,COc1ccc(NC(=O)c2c(NCc3cccnc3)sc3c2CCC(C)C3)c(OC)c1 (stereo not drawn),-7.54
3,CCOc1ccc(-n2c(-c3ccc(OC)cc3)cc3c2CC(C)(C)CC3=O)cc1,-11.3
4,Cc1c(-c2ccccc2)nc2sc3c(c2c1N)CCCC3,-5.56
5,COc1ccc(CCNc2nc(-c3sc(N)nc3C)cs2)cc1OC,-12.9
6,CN(Cc1ccccc1)c1oc(COc2ccc(Cl)cc2)nc1C#N,-3.22
7,Oc1c(Br)cc(CN2CCCCC2)c2cccnc12,-13.2
8,Nc1ccc(-c2ccc(-c3cnc4ccccc4n3)cc2)cc1,-9.63
9,COc1ccc(Nc2cc(C(=O)NCCCN(C)Cc3ccccc3)c3ccccc3n2)cc1OC,-11.1
10,CC(C)c1ccc(CNc2ccc3c(c2)ncn3C(C)(C)C)cc1,-20.4
11,O=C(CS(=O)(=O)c1nc(-c2ccccc2)cn1-c1ccc(Cl)cc1)Nc1ccccc1F,-5.22
12,CCOC(=O)c1cnc2c(OC)cccc2c1N1CCN(c2ccccc2F)CC1,-0.646
13,COCc1cc(=O)[nH]c(Nc2nc3ccccc3o2)n1,-11.4
14,Cc1nn(CC(O)Cn2c(C)c(C)c3ccccc32)c(C)c1Br (stereo not drawn),-3.71
15,COC(=O)c1c[nH]n2c(NC3CCC(C)CC3)c(-c3ccc(OC(C)C)c(OC)c3)nc12 (stereo not drawn),-0.988
16,COC(=O)CNc1c(-c2ccccn2)nc2ccc(Br)cn12,-1.63
17,N#Cc1c(-c2ccc(F)cc2)c(C#N)c(=O)n(N)c1N,-22.4
18,O=[N+]([O-])c1ccc(-c2cn(-c3ccccc3NCc3ccccc3)cn2)o1,-6.66
19,COc1ccc(Oc2cc([N+](=O)[O-])cc3c2C(=O)Nc2cc(Cl)ccc2O3)cc1,-10.6
20,COc1ccc(CCNc2oc(COc3cccc(C)c3)nc2C#N)cc1OC,-9.78
21,Oc1cccc(-c2nc(-c3ccccc3)c(-c3ccccc3)[nH]2)c1,-0.655
22,CCCN1CCN(C(=O)C2CCCN(c3nc4ccc(OCC)cc4s3)C2)CC1 (stereo not drawn),-13.4

row,SMILES,z-score
1,COc1ccc(-c2nc3sccn3c2Nc2ccc3c(c2)OCO3)cc1,-19.9
2,COc1ccc(C(=O)Nc2nnc(-c3cccc(C)c3)o2)cc1OC,-11.1
3,CCCCN(CC)S(=O)(=O)c1ccc(C(=O)Nc2nnc(COC)o2)cc1,-1.63
4,COc1ccc(-c2c(C)nn3c(NCc4ccccn4)cc(C)nc23)cc1OC,-15.1
5,CCOC(=O)c1cnc2c(C)cccc2c1Nc1ccc(N(CC)CC)cc1,-10.1
6,Cc1nnc(NC(=O)c2ccc(S(=O)(=O)N3CCCC3)cc2)o1,-1.29
7,CCOC(=O)c1cnc2c(C)cc(Cl)cc2c1Nc1ccc(N2CCOCC2)cc1,-3.27
8,Cc1ccccc1NC(=O)c1cnc(Nc2nc3ccccc3o2)nc1C,-16.4
9,COc1ccccc1OCCCCCCc1c(C)n[nH]c1C,-17.9
10,CN(C)c1ccc(Nc2nc(-c3ccccc3Cl)nc3ccccc23)cc1,-20.9
11,Cc1ccc(S(=O)(=O)Nc2cccc3cccnc23)cc1,-19.5
12,Cc1cccn2c(Nc3ccc4c(c3)OCCO4)c(-c3ccc(N(C)C)cc3)nc12,-22.1
13,O=S(=O)(Nc1nccs1)c1ccc(Nc2nnc(-c3ccccc3)c3ccccc23)cc1,-1.3
14,COc1cc(Nc2nc(-c3ccc(C)cc3)cs2)c(OC)cc1Cl,-5.96
15,CCCC(=O)NC(c1ccc(OC)c(OC)c1)c1cc(Cl)c2cccnc2c1O (stereo not drawn),-2.06
16,CC(C)c1ccc(NC(=O)C(c2ccccc2)N2CCc3ccccc32)cc1 (stereo not drawn),-3.16
17,CC(C)n1cnc2cc(NCc3cccc4ccccc34)ccc21,-21.5
18,CC(C)OCc1ccc(O)c2ncccc12,-26.5
19,CCN(Cc1ccccc1)S(=O)(=O)c1ccc(C(=O)Nc2nnc(C)o2)cc1,-1.32
20,Cc1cccn2c(Nc3ccc(C(C)C)cc3)c(-c3ccccn3)nc12,-1.28
21,CCN(CCCNC(=O)Cc1cn(C)c2ccccc12)c1ccccc1,-10.7
22,O=C(Nc1nc(-c2ccccn2)cs1)c1ccc(N2C(=O)CCC2=O)cc1,-23.1

row,SMILES,z-score
1,N#CCCN(CCC#N)S(=O)(=O)c1ccc(C(=O)Nc2nnc(C3CC3)o2)cc1,-2.79
2,COc1ccc2[nH]c(C)c(CCNCC(C)Cc3ccc4c(c3)OCO4)c2c1 (stereo not drawn),-11.9
3,Cc1ccc(OCc2nc(C#N)c(N3CCN(Cc4ccccc4)CC3)o2)cc1,-9.83
4,Oc1ccc(Nc2nc(-c3ccc(Cl)cc3)cs2)cc1,-4
5,Cc1ccc(S(=O)(=O)c2nc(-c3ccccc3F)oc2N2CCCCC2)cc1,-4.94
6,COc1ccc(-n2cnc3cc(NCc4cccc5ccccc45)ccc32)cc1,-4.32
7,CCC(=O)Nc1nc(C)c(-c2csc(Nc3ccc(OC)cc3)n2)s1,-0.594
8,CC1CCCN(S(=O)(=O)c2ccc(C(=O)Nc3nnc(-c4ccccc4Cl)o3)cc2)C1 (stereo not drawn),-16.7
9,COc1ccccc1N1CCN(Cc2cc(Br)c(O)c3ncccc23)CC1,-24.4
10,O=S(=O)(c1ccc(Cl)cc1)N(CCCN1CCOCC1)Cc1cccs1,-4.01
11,C1=CC2=C(CO1)OCc1c2[nH]c2ccc3ccccc3c12,-11.2
12,COc1ccc(Cl)cc1NC(=O)CSc1nccn1-c1ccc(F)cc1,-2.12
13,O=S(=O)(Nc1cccc2cccnc12)c1ccccc1O,-21.3
14,Cc1ccn2c(NC3CCCCC3)c(-c3ccccn3)nc2c1,-14.4
15,O=C(Nc1nc(SCc2ccccc2Cl)ns1)c1ncn[nH]1,-11.2
16,CCCC1CCC(c2ccc(-c3noc(-c4ccc(O)c(F)c4)n3)cc2)CC1 (stereo not drawn),-0.668
17,COc1cc(OC)cc(-c2nnc(NC(=O)c3ccc(S(=O)(=O)N(C)Cc4ccccc4)cc3)o2)c1,-15.5
18,COc1ccc(N2CCN(C(c3cccs3)C(C)NS(=O)(=O)c3ccc(F)cc3)CC2)cc1 (stereo not drawn),-6.57
19,COc1ccc(-c2nnc(NC(=O)c3ccc(S(=O)(=O)N(C)Cc4ccccc4)cc3)o2)c(OC)c1,-16.8
20,Fc1ccc(Nc2c(-c3ccccn3)nc3ccccn23)cc1,-9.05

# From PubChem BioAssay AID1224903 (Bradner/Qi Labs at DFCI, 2016)
